Test results from paper PMC4336329 (PLoS ONE, 2015).
In all, about 310,000 compounds went through this assay and about 2,200 (0.71%) showed an effect of 50% or more. The effect is printed as a negative number. The list shows a part of the results.

Molecular target: human ether-à-go-go-related gene (hERG) potassium channel (human, UniProt Q12809)
Experiment: primary screen, population patch clamp on CHO cells stably expressing hERG

Chain of human ether-à-go-go-related gene (hERG) potassium channel (Q12809 whole entry, looked up): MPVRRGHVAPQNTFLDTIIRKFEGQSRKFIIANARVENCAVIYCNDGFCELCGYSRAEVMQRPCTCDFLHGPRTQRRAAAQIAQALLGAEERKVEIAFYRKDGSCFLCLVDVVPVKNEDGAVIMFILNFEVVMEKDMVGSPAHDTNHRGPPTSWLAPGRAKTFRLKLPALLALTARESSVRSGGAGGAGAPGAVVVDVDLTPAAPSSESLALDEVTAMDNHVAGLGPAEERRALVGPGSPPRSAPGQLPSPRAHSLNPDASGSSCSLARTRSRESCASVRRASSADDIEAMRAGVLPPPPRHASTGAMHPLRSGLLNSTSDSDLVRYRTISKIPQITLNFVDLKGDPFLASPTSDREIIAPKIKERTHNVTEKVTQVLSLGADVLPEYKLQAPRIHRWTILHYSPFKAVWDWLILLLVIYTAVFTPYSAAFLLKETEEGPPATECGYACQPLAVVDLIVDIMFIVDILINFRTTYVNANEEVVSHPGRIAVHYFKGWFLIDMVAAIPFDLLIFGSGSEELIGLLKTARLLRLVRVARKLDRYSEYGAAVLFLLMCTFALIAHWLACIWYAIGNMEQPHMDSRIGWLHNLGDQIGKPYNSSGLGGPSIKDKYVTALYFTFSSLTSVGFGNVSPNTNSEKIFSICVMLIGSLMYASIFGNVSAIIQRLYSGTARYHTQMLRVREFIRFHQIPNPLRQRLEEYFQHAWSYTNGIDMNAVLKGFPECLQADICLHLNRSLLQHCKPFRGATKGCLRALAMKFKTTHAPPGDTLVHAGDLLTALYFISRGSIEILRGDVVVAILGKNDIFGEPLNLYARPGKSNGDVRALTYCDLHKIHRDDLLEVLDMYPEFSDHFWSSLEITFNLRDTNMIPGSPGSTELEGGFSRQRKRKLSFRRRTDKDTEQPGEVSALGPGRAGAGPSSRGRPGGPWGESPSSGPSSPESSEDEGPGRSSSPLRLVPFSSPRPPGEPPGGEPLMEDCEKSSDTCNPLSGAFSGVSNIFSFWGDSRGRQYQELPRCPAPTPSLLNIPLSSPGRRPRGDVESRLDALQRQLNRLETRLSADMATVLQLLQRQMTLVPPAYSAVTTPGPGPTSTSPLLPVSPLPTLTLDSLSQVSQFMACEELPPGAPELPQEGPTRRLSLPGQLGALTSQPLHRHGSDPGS

SMILES	hERG current change (%, negative = inhibition) at 1uM [%]
Cc1ccc(Nc2nc(N)nc(CN3CCC(C)CC3)n2)c(C)c1	-18.5
CCC(=O)Nc1nc(C)c(-c2csc(Nc3ccccn3)n2)s1	8.53
O=C(COc1cccc(C(F)(F)F)c1)NNC(=O)Cn1c(=O)cnc2ccccc21	10.1
COCCCN(Cc1ccco1)C(=O)CSc1nc2ncccc2[nH]1	14.9
O=C(NC1CCCC1)C(c1ccc(O)cc1)N(CC1CCCO1)C(=O)C1COc2ccccc2O1 (stereo not shown)	5.42
O=C(c1ccccc1Sc1cccc2ccccc12)N1CCOCC1	7.17
Cc1ccc(C(=O)Nc2c(C)cc(C)c3cccnc23)cc1	14
Cc1cc(C)cc(NC(=O)COC(=O)[C@@H](NC(=O)c2ccco2)C(C)C)c1	-1.71
C/C(=N\NC(=O)c1cccc(F)c1)c1ccc(Br)s1	22.6
Cc1csc(SCC(=O)c2c(N)n(C)c(=O)n(C)c2=O)n1	12.6
Nc1nnc(SCC(=O)NCCNC(=O)CSc2nnc(N)s2)s1	13.9
CN(C)C(=O)N1CCCC(C(=O)NCc2ccc(F)cc2Cl)C1 (stereo not shown)	11.2
Cc1ccc(NCC(=O)N/N=C/c2cc3ccccc3nc2Cl)cc1	16.4
Fc1ccc(OCc2nc(-c3ccncc3)n[nH]2)cc1	13.4
CC(OC(=O)Cn1[nH]c(=O)c2ccccc2c1=O)C(=O)c1ccccc1 (stereo not shown)	13
CSc1ccccc1OCc1cc(C(=O)N2CCC(c3ccncc3)CC2)no1	-0.644
CN(CC(=O)Nc1ccccc1)CC(=O)Nc1ccc(F)cc1	13.5
CCC(=O)Nc1c2c(nn1-c1cccc(Cl)c1)CSC2	-0.778
O=C(Nc1nc(-c2ccccn2)cs1)C12CC3CC(CC(O)(C3)C1)C2	11.9
CN1C(=O)N(C)C2(c3ccccc3)NNC(N)=NC12c1ccccc1.Cl (stereo not shown)	5.36
Cc1cccc(C(CC(=O)O)n2cccc2)c1 (stereo not shown)	12.7
COC(=O)c1ccc(-c2csc(NC(=O)C3=COCCO3)n2)cc1	9.14
O=C(NC(Cc1ccccc1)C(=O)O)/C(=C/c1ccc([N+](=O)[O-])cc1)NC(=O)c1ccccc1 (stereo not shown)	10.9

SMILES	hERG current change (%, negative = inhibition) at 1uM [%]
[N-]=[N+]=NC[C@H](Cc1ccccc1)N1CC[C@@H](OCc2ccccc2)CCC1=O	6.37
COc1ccc(C2C3=C(CC(C)(C)CC3=O)N(CC(=O)O)C3=C2C(=O)CC(C)(C)C3)cc1OC	5.99
Cc1cccc(N=C2NC(=O)/C(=C/c3cn(C)c4ccccc34)S2)c1	15.8
CCc1nn(CC(=O)N2CCN(C)CC2)c(=O)c2cccn12	-1.06
O=C(NCCc1c[nH]c2ccccc12)C(=O)NCC(c1ccco1)N1CCN(c2ccccc2F)CC1 (stereo not shown)	-2.01
CC(=O)NC1=NN(C(C)=O)C2(CCCC2)S1	11.3
CCc1cccc(C)c1NS(=O)(=O)c1cc(Br)cnc1N	15.8
COc1cc(/C=N/n2nnnc2Nc2ccccc2)cc(OC)c1OC	-1.79
CCNc1nc(C)cc(COC)c1C#N	-1.13
COC(=O)c1ccc(CN2CCC(CO)(CCOc3ccccc3)CC2)cc1	-81.7
CCCn1c(SCCC(=O)O)nc2ccccc21	8.31
CCOc1ccc2oc(C(=O)OCC(=O)NC(=O)NC3CCCC3)c(C)c2c1	4.93
COc1ccc(NC(=O)CN2CCN(S(=O)(=O)c3ccc(Cl)cc3)CC2)cc1	-64.1
COc1ccc(CNC(=O)CCCn2nc([N+](=O)[O-])cc2C)cc1	6.61
Cc1ccc(S(=O)(=O)N2CCCCC2C(=O)N2CCN(Cc3ccccc3)CC2)cc1.Cl (stereo not shown)	7.97
Cc1ccc(NC(=O)Cn2nnc(C(=O)Nc3ccc(F)c(Cl)c3)c2N)cc1	10.2
CC(=O)Oc1ccccc1C(=O)O	7.19
Cc1ncc(C[n+]2csc(CCO)c2C)c(N)n1.[Cl-]	11.4
Clc1ccc(-c2nc3ccccn3c2CN2CCCCC2)cc1	3.44
O=C(O)/C(=C/c1ccco1)NC(=O)c1ccc(Br)o1	14.9
O=C(c1ccco1)N1CCN(Cc2nnc(-c3cccc(Br)c3)o2)CC1	-51.6
CCN(CC(=O)Nc1ccccc1OC)C(=O)C1CCCC1	7.53
CN(C)C(Cc1ccc(C#N)cc1)C(=O)c1ccccc1 (stereo not shown)	6.46
